These results are taken from patent publication US20260083855A1 (Hoffmann-La Roche, published 2026).

First the molecules themselves.
T1: hu IL2R beta-gamma-Fc (P1AD7029-002) (human, UniProt P14784 27-240; P31785 23-262)
T1 construct: Analyte in all SPR runs; also called human IL2R beta-gamma Fc; recombinant human IL2Rbeta-gamma-Fc heterodimer; not shown: Fc part and any linker of the heterodimer
T1 sequence (looked up) 1: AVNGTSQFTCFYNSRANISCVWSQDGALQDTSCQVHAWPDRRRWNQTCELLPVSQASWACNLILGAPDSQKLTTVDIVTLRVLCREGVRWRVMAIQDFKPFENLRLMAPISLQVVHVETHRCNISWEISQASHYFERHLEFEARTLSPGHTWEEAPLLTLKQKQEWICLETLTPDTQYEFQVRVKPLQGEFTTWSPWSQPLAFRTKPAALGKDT
T1 sequence (looked up) 2: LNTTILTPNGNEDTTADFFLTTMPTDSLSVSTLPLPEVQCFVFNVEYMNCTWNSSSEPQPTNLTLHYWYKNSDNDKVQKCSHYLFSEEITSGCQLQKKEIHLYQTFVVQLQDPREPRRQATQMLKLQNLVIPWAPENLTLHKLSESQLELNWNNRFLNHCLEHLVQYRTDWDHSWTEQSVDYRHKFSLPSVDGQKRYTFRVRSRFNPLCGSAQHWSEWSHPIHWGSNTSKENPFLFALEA

B1: FAP 4B9 IgG-huIL2v_L12A (P1AE4804) (other)
light: EIVLTQSPGTLSLSPGERATLSCRASQSVTSSYLAWYQQKPGQAPRLLINVGSRRATGIPDRFSGSGSGTDFTLTISRLEPEDFAVYYCQQGIMLPPTFGQGTKVEIKRTVAAPSVFIFPPSDEQLKSGTASVVCLLNNFYPREAKVQWKVDNALQSGNSQESVTEQDSKDSTYSLSSTLTLSKADYEKHKVYACEVTHQGLSSPVTKSFNRGEC
heavy 1: EVQLLESGGGLVQPGGSLRLSCAASGFTFSSYAMSWVRQAPGKGLEWVSAIIGSGASTYYADSVKGRFTISRDNSKNTLYLQMNSLRAEDTAVYYCAKGWFGGFNYWGQGTLVTVSSASTKGPSVFPLAPSSKSTSGGTAALGCLVKDYFPEPVTVSWNSGALTSGVHTFPAVLQSSGLYSLSSVVTVPSSSLGTQTYICNVNHKPSNTKVDKKVEPKSCDKTHTCPPCPAPEAAGGPSVFLFPPKPKDTLMISRTPEVTCVVVDVSHEDPEVKFNWYVDGVEVHNAKTKPREEQYNSTYRVVSVLTVLHQDWLNGKEYKCKVSNKALGAPIEKTISKAKGQPREPQVCTLPPSRDELTKNQVSLSCAVKGFYPSDIAVEWESNGQPENNYKTTPPVLDSDGSFFLVSKLTVDKSRWQQGNVFSCSVMHEALHNHYTQKSLSLSPGK
heavy 2: EVQLLESGGGLVQPGGSLRLSCAASGFTFSSYAMSWVRQAPGKGLEWVSAIIGSGASTYYADSVKGRFTISRDNSKNTLYLQMNSLRAEDTAVYYCAKGWFGGFNYWGQGTLVTVSSASTKGPSVFPLAPSSKSTSGGTAALGCLVKDYFPEPVTVSWNSGALTSGVHTFPAVLQSSGLYSLSSVVTVPSSSLGTQTYICNVNHKPSNTKVDKKV[human IgG1 Fc with changes not written out]GGGGSGGGGSGGGGSGGGGSGGGGSAPASSSTKKTQAQLEHLLLDLQMILNGINNYKNPKLTRMLTAKFAMPKKATELKHLQCLEEELKPLEEVLNGAQSKNFHLRPRDLISNINVIVLELKGSETTFMCEYADETATIVEFLNRWITFAQSIISTLT
notes: Immunoconjugate: anti-FAP IgG1 PG LALA knob/hole, IL2v variant on the knob heavy chain; also called P1AE4804-003
B2: FAP 4B9 IgG-huIL2v_L12A_L19A (P1AE4806) (other)
light: B1 light
heavy 1: B1 heavy 1
heavy 2: EVQLLESGGGLVQPGGSLRLSCAASGFTFSSYAMSWVRQAPGKGLEWVSAIIGSGASTYYADSVKGRFTISRDNSKNTLYLQMNSLRAEDTAVYYCAKGWFGGFNYWGQGTLVTVSSASTKGPSVFPLAPSSKSTSGGTAALGCLVKDYFPEPVTVSWNSGALTSGVHTFPAVLQSSGLYSLSSVVTVPSSSLGTQTYICNVNHKPSNTKVDKKV[human IgG1 Fc with changes not written out]GGGGSGGGGSGGGGSGGGGSGGGGSAPASSSTKKTQAQLEHLLADLQMILNGINNYKNPKLTRMLTAKFAMPKKATELKHLQCLEEELKPLEEVLNGAQSKNFHLRPRDLISNINVIVLELKGSETTFMCEYADETATIVEFLNRWITFAQSIISTLT
notes: Immunoconjugate: anti-FAP IgG1 PG LALA knob/hole, IL2v variant on the knob heavy chain; also called P1AE4806-003
B3: FAP 4B9 IgG-huIL2v_L19V (P1AE4808) (other)
light: B1 light
heavy 1: B1 heavy 1
heavy 2: EVQLLESGGGLVQPGGSLRLSCAASGFTFSSYAMSWVRQAPGKGLEWVSAIIGSGASTYYADSVKGRFTISRDNSKNTLYLQMNSLRAEDTAVYYCAKGWFGGFNYWGQGTLVTVSSASTKGPSVFPLAPSSKSTSGGTAALGCLVKDYFPEPVTVSWNSGALTSGVHTFPAVLQSSGLYSLSSVVTVPSSSLGTQTYICNVNHKPSNTKVDKKV[human IgG1 Fc with changes not written out]GGGGSGGGGSGGGGSGGGGSGGGGSAPASSSTKKTQLQLEHLLVDLQMILNGINNYKNPKLTRMLTAKFAMPKKATELKHLQCLEEELKPLEEVLNGAQSKNFHLRPRDLISNINVIVLELKGSETTFMCEYADETATIVEFLNRWITFAQSIISTLT
notes: Immunoconjugate: anti-FAP IgG1 PG LALA knob/hole, IL2v variant on the knob heavy chain; also called P1AE4808-003
B4: FAP 4B9 IgG-huIL2v_N88T (P1AE4809) (other)
light: B1 light
heavy 1: B1 heavy 1
heavy 2: EVQLLESGGGLVQPGGSLRLSCAASGFTFSSYAMSWVRQAPGKGLEWVSAIIGSGASTYYADSVKGRFTISRDNSKNTLYLQMNSLRAEDTAVYYCAKGWFGGFNYWGQGTLVTVSSASTKGPSVFPLAPSSKSTSGGTAALGCLVKDYFPEPVTVSWNSGALTSGVHTFPAVLQSSGLYSLSSVVTVPSSSLGTQTYICNVNHKPSNTKVDKKV[human IgG1 Fc with changes not written out]GGGGSGGGGSGGGGSGGGGSGGGGSAPASSSTKKTQLQLEHLLLDLQMILNGINNYKNPKLTRMLTAKFAMPKKATELKHLQCLEEELKPLEEVLNGAQSKNFHLRPRDLISTINVIVLELKGSETTFMCEYADETATIVEFLNRWITFAQSIISTLT
notes: Immunoconjugate: anti-FAP IgG1 PG LALA knob/hole, IL2v variant on the knob heavy chain; also called P1AE4809-003
B5: FAP 4B9 IgG-huIL2v_L12A_L80A (P1AE4807) (other)
light: B1 light
heavy 1: B1 heavy 1
heavy 2: EVQLLESGGGLVQPGGSLRLSCAASGFTFSSYAMSWVRQAPGKGLEWVSAIIGSGASTYYADSVKGRFTISRDNSKNTLYLQMNSLRAEDTAVYYCAKGWFGGFNYWGQGTLVTVSSASTKGPSVFPLAPSSKSTSGGTAALGCLVKDYFPEPVTVSWNSGALTSGVHTFPAVLQSSGLYSLSSVVTVPSSSLGTQTYICNVNHKPSNTKVDKKV[human IgG1 Fc with changes not written out]GGGGSGGGGSGGGGSGGGGSGGGGSAPASSSTKKTQAQLEHLLLDLQMILNGINNYKNPKLTRMLTAKFAMPKKATELKHLQCLEEELKPLEEVLNGAQSKNFHARPRDLISNINVIVLELKGSETTFMCEYADETATIVEFLNRWITFAQSIISTLT
notes: Immunoconjugate: anti-FAP IgG1 PG LALA knob/hole, IL2v variant on the knob heavy chain; also called P1AE4807-003
B6: FAP 4B9 IgG-huIL2v_Q22A (P1AE4811) (other)
light: B1 light
heavy 1: B1 heavy 1
heavy 2: EVQLLESGGGLVQPGGSLRLSCAASGFTFSSYAMSWVRQAPGKGLEWVSAIIGSGASTYYADSVKGRFTISRDNSKNTLYLQMNSLRAEDTAVYYCAKGWFGGFNYWGQGTLVTVSSASTKGPSVFPLAPSSKSTSGGTAALGCLVKDYFPEPVTVSWNSGALTSGVHTFPAVLQSSGLYSLSSVVTVPSSSLGTQTYICNVNHKPSNTKVDKKV[human IgG1 Fc with changes not written out]GGGGSGGGGSGGGGSGGGGSGGGGSAPASSSTKKTQLQLEHLLLDLAMILNGINNYKNPKLTRMLTAKFAMPKKATELKHLQCLEEELKPLEEVLNGAQSKNFHLRPRDLISNINVIVLELKGSETTFMCEYADETATIVEFLNRWITFAQSIISTLT
notes: Immunoconjugate: anti-FAP IgG1 PG LALA knob/hole, IL2v variant on the knob heavy chain; also called P1AE4811-003
B7: FAP 4B9 IgG-huIL2v_N119K (P1AE4810) (other)
light: B1 light
heavy 1: B1 heavy 1
heavy 2: EVQLLESGGGLVQPGGSLRLSCAASGFTFSSYAMSWVRQAPGKGLEWVSAIIGSGASTYYADSVKGRFTISRDNSKNTLYLQMNSLRAEDTAVYYCAKGWFGGFNYWGQGTLVTVSSASTKGPSVFPLAPSSKSTSGGTAALGCLVKDYFPEPVTVSWNSGALTSGVHTFPAVLQSSGLYSLSSVVTVPSSSLGTQTYICNVNHKPSNTKVDKKV[human IgG1 Fc with changes not written out]GGGGSGGGGSGGGGSGGGGSGGGGSAPASSSTKKTQLQLEHLLLDLQMILNGINNYKNPKLTRMLTAKFAMPKKATELKHLQCLEEELKPLEEVLNGAQSKNFHLRPRDLISNINVIVLELKGSETTFMCEYADETATIVEFLKRWITFAQSIISTLT
notes: Immunoconjugate: anti-FAP IgG1 PG LALA knob/hole, IL2v variant on the knob heavy chain; also called P1AE4810-003

The target in the assay is T1, hu IL2R beta-gamma-Fc (P1AD7029-002). Nature of the assay: SPR, captured via anti-human Fc, IL2Rbg-Fc analyte, 1:1 Langmuir. The text has this: Bulk refractive index differences were corrected for by subtracting the response obtained on the reference flow cell 1.
A general note: Surface plasmon resonance follows binding to a sensor surface in real time, without labels.
On to B1, for which the Kd came out at 60 pM, the off-rate (koff) came out at 2.58e-06 s⁻¹ and the kon was 39000 M⁻¹ s⁻¹.
Take B2: the Kd was found to be 3000 pM, the koff came to 9.35e-05 s⁻¹ and the kon was determined as 27200 M⁻¹ s⁻¹.
On to B3, for which binding was characterised by a dissociation constant (Kd) of 160 pM, the koff came out at 6.78e-06 s⁻¹ and the kon turned out to be 41900 M⁻¹ s⁻¹.
For B4, in that order: 50000 pM, 0.00154 s⁻¹ and 29600 M⁻¹ s⁻¹.
In turn, B5 returned a Kd of 700 pM, a koff of 3.24e-05 s⁻¹ and a kon of 45600 M⁻¹ s⁻¹.
Take B6: the Kd came to 30 pM, the koff is 9.98e-07 s⁻¹ and the kon was 34400 M⁻¹ s⁻¹.
The matching figures for B7: 10 pM, 4.07e-07 s⁻¹ and 32400 M⁻¹ s⁻¹.

As a reminder, the Kd is a measure of binding affinity in units of concentration. Higher therefore signals weaker binding. Usually koff stands for the first-order rate constant of dissociation. Low values mean a long-lived complex, high ones a short-lived complex. Broadly, the kon is the rate constant with which the complex forms.
